Measurements reported in patent US12662541B2, “Antibody-drug conjugates against the receptor tyrosine kinase EphA5” (Rutgers, The State University of New Jersey, priority 2021, dated 2026).
Entries after “also recorded” stand apart in the source; their conditions may differ.

Key:
[1] = system: 6,000 human membrane protein clones; assay: Membrane Proteome Array (MPA) specificity screen; format: binding; settings: 20 μg/ml antibody, HEK-293T; listed as EPHA5 H5K3
Procedure: To optimize conditions for test antibody detection, HEK-293T cells and QT6 cells were transfected with plasmids encoding known test antibody targets, Protein A (binds antibody Fc; positive control), or vector alone (pUC; negative control) in 384-well cell-culture plates. After incubation, four four-fold dilutions starting at 20 μg/ml of each test antibody were added in quadruplicate to transfected cells and detected using a single dilution of secondary antibody in a high-throughput immunofluorescence flow cytometry assay. Data from assay setup experiments were used to determine the optimal screening conditions for high-throughput immunodetection (Table E4). Optimal screening concentrations were determined by the background signal (mean fluorescence intensity (MFI)), and false positive rate in the vector control.
Membrane Proteome Array: Membrane Proteome Array (MPA) screening was conducted at Integral Molecular. The MPA is a protein library composed of 6,000 human membrane protein clones, each overexpressed in live cells from expression plasmids. […] Before screening on the MPA, the test antibody concentration for screening was determined on cells expressing positive (membrane-tethered Protein A) and negative (mock-transfected) binding controls, followed by detection by flow cytometry using a fluorescently-labeled secondary antibody. […]

EphA5− cells = assay: Antibody internalization, EphA5− cells; format: cell-based
rhEphA5 antigen = target: T1, rhEphA5 antigen (Homo sapiens, UniProt P54756); assay: Multi-cycle kinetic analysis (Biacore T200) of purified antibodies; format: binding
T1 construct: purchased R and D systems 3036-A5
Procedure: In order to assess the binding of the six lead humanized variants to rhEphA5 antigen, multi-cycle kinetic analysis (FIG. 68) was performed on purified material. Kinetic experiments were performed at 25° C. on a Biacore T200 running Biacore T200 Control software V2.0.1 and Evaluation software V3.0 (GE Healthcare, Uppsala, Sweden).
HBS-P+ (GE Healthcare, Uppsala, Sweden), supplemented with 1% BSA w/v (Sigma, Dorset, UK) was used as running buffer as well as for ligand and analyte dilutions. Purified lead antibodies were diluted to 0.5 μg/mL in running buffer and at the start of each cycle, loaded onto Fc2, Fc3 and Fc4 of an anti-human IgG CMS sensor chip (GE Healthcare, Little Chalfont, UK). Antibodies were captured at a flow rate of 10 μl/min to give an immobilization level (RL) of 50 RU. The surface was then allowed to stabilize.
Multi-cycle kinetic data was obtained using recombinant EphA5 as the analytes injected at a flow rate of 30 μl/min to minimize any potential mass transfer effects. A five point, three-fold dilution range from 1.11 nM to 270 nM of EphA5 was prepared in running buffer. For each concentration, the association phases were monitored for 210 seconds and the dissociation phase was measured for 900 seconds. Regeneration of the sensor chip surface was conducted between cycles using two injections of 3 M MgCl2. […]

[2] = system: EphA5+ cells (H460 human lung cancer cells); assay: Antibody internalization, EphA5+ cells; format: cell-based
[3] = system: H460, A549 and H1299 human lung carcinoma cells; assay: Incucyte Human Fabfluor-pH Red antibody internalization; format: cell-based; settings: naked mAb, real-time live cell imaging
Procedure: In vitro studies were conducted in which three different Eph5A-expressing target cell lines were incubated with various concentrations of VH5Vk3 or VH4Vk3 antibodies after which internalization of bound antibody was calculated. Antibody internalization was performed with the Incucyte® Human Fabfluor-pH Red Antibody Labeling Dye and the naked VH4Vk3 (FIG. 66) and VH5Vk3 (FIG. 67) human monoclonal antibodies in the following cell lines: H460 human lung carcinoma, A549 human lung carcinoma and H1299 human lung carcinoma. These cell lines express variable levels of EphA5 on the cell surface: H460 (+++)>A549 (++)=H1299 (++). Internalization was visualized and quantified using real-time live cell imaging analysis. The Fabfluor-pH Red Antibody Labeling Dye is sensitive to pH and only emits fluorescence once inside lysosomes in low pH conditions.

[4] = system: H522, H460, A549 and H1299 cells; assay: Incucyte cytotoxicity of ADC (% confluence); format: cell-based, human; settings: EphA5 expression H522 (++++)>H460 (+++)>A549 (++)=H1299 (++)

T1 sequence (P54756 25-573 limits assumed): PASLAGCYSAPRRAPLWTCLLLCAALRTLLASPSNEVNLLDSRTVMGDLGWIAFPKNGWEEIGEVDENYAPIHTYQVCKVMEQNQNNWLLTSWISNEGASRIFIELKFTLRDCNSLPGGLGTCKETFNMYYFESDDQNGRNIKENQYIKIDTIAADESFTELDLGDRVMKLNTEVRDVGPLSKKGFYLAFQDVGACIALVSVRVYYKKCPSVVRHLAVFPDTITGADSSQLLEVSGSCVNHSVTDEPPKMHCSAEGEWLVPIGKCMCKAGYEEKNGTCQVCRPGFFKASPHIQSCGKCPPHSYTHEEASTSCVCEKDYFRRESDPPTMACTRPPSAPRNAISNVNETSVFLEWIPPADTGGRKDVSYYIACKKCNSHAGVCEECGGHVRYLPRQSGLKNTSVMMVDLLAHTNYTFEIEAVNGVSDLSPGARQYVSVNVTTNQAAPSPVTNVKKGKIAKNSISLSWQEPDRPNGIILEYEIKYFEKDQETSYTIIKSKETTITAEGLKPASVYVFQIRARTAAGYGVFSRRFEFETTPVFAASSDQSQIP

Molecule	Identified membrane protein targets, Target gene (HGNC) [1]	internalization of bound antibody (EphA5− cells)	RMAX (rhEphA5 antigen; 1:1 model fit)	kd (rhEphA5 antigen; 1:1 model, binding to EphA5) [s⁻¹]	internalization of bound antibody ([2]; EphA5+ cells, various concentrations)	internalization in H460 cells ([2]; FIG. 2A)	internalization and lysosomal trafficking [3]	ADC induced cell death (decrease of confluence) [4]
VH5/VK3: humanized anti-EphA5 IgG1/kappa antibody, heavy chain SEQ ID NO:39, light chain SEQ ID NO:40 (antibody) heavy: EVQLVESGGGLVQPGGSLKLSCAASGFTFSTFGIHWVRQAPGKGLEWVAYISGASTTIYYADSVKGRFTISRDNSKNTLYLQMNSLRAEDTAVYYCARYGTSFPYGLDYWGQGTLVTVSSASTKGPSVFPLAPSSKSTSGGTAALGCLVKDYFPEPVTVSWNSGALTSGVHTFPAVLQSSGLYSLSSVVTVPSSSLGTQTYICNVNHKPSNTKVDKRV[letters of human IgG1 Fc left out] light: DIVMTQSPDSLAVSLGERATINCKASQSVDYDGDSYMNWYQQKPGKAPKLLIYGASNLESGIPDRFSGSGSGTDFTLTISRLEPEDAAVYYCQQSNEDPFTFGQGTKLEIKRTVAAPSVFIFPPSDEQLKSGTASVVCLLNNFYPREAKVQWKVDNALQSGNSQESVTEQDSKDSTYSLSSTLTLSKADYEKHKVYACEVTHQGLSSPVTKSFNRGEC	EPHA5; also recorded: CPT1B	not EphA5− cells	35.3	0.00135	internalized into EphA5+ cells but not EphA5− cells and trafficked to lysosome	dose dependent	confirmed receptor-mediated internalization and trafficking of both human monoclonal antibodies through the lysosomal compartment	
VH5Vk3-ThioBridge®-VCP-MMAE (conjugate) heavy: EVQLVESGGGLVQPGGSLKLSCAASGFTFSTFGIHWVRQAPGKGLEWVAYISGASTTIYYADSVKGRFTISRDNSKNTLYLQMNSLRAEDTAVYYCARYGTSFPYGLDYWGQGTLVTVSSASTKGPSVFPLAPSSKSTSGGTAALGCLVKDYFPEPVTVSWNSGALTSGVHTFPAVLQSSGLYSLSSVVTVPSSSLGTQTYICNVNHKPSNTKVDKRV[letters of human IgG1 Fc left out] light: DIVMTQSPDSLAVSLGERATINCKASQSVDYDGDSYMNWYQQKPGKAPKLLIYGASNLESGIPDRFSGSGSGTDFTLTISRLEPEDAAVYYCQQSNEDPFTFGQGTKLEIKRTVAAPSVFIFPPSDEQLKSGTASVVCLLNNFYPREAKVQWKVDNALQSGNSQESVTEQDSKDSTYSLSSTLTLSKADYEKHKVYACEVTHQGLSSPVTKSFNRGEC								increasing amounts of ADC induced cell death which is dependent on the levels of expression of the target EphA5
